# Measured values: the supplement of paper PMC8728848
# Some of the results follow.
# B1: PX9896A-bth-573-26-573 (Bacteroides thetaiotaomicron) (protein)
# chain: ETNNLKTKEDMYKYFGTSKSMLTHVYSYMPQGYQLFATSGGIFTEDRYSMRDCASDDGEFGAYADNIQNTNNGNWSPIKTYDDSWTLYRGIRAANSFIAEIAQVDFTRYEHDGQYTNWMKQLKYFPYEARVLRAHYFFELARRYGDIAMPLEVLTEEEANTIGKTPFSEVISFIVSECDDAANNLPDSYVNEPGAEIGRVTKGFAMAVKSKALLYAASKLHNPSMDTELWKKSAKAAIDIINTGLYSLDPQESANNLDSKEVVLMRINGDDSDFEMFNLPLRMTAGTRTSSLIPYSNYPSQNLVDAFETVNGYKVTLENTGWVCEDPAFDPQSPYENRDKRFYRAILANGMSFKDYTIETFKGGADDGIVSQGGSPTGYFLRKYIQEATSFEPGKEAVSKHHWVIYRYAETLLTYAESMVNAFNDVNYTDETYKYSALWAINEVRKNADMPLIPSMGKDEFMERLYNEWRVEFAFEDHRFWDVRRWKIADTTQRELYGVKIEKQADGTFNFYKNLYETRNWRDCMYLYPIPQSELYKNTNLNPQNTGW
# Columns and labels:
# Assay in all cases: glycan array binding signal (z-score within array); higher = stronger binding
# Conditions in all cases: glycan notation: IUPAC condensed, linker removed
# [1] = target: GlcNAc(b1-2)Gal(b1-3)GalNAc
# Procedure, shortened: (§1)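 Glycan array data came from 3228 arrays in the Consortium for Functional Glycomics database, and only arrays with an available protein sequence were kept. Glycan names were put into IUPAC-condensed notation, and columns mapping to the same glycan were averaged. The binding signal is a within-array Z-score, averaged across arrays of one protein sequence run at different concentrations or buffers and across linkers. A negative Z-score can be read as non-binding.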
# [2] = target: GlcNAc(b1-2)Man(a1-3)[GlcNAc(b1-2)Man(a1-6)]Man(b1-4)GlcNAc(b1-4)GlcNAc
# Procedure, shortened: as §1
# [3] = target: GlcNAc(b1-2)Man(a1-3)[GlcNAc(b1-2)Man(a1-6)]Man(b1-4)GlcNAc(b1-4)[Fuc(a1-6)]GlcNAc
# Procedure, shortened: as §1
# [4] = target: GlcNAc(b1-2)Man(a1-3)[GlcNAc(b1-4)][GlcNAc(b1-2)Man(a1-6)]Man(b1-4)GlcNAc(b1-4)GlcNAc
# Procedure, shortened: as §1
# [5] = target: GlcNAc(b1-2)Man(a1-3)[GlcNAc(b1-4)][GlcNAc(b1-2)Man(a1-6)]Man(b1-4)GlcNAc(b1-4)[Fuc(a1-6)]GlcNAc
# Procedure, shortened: as §1
# [6] = target: GlcNAc(b1-2)[GlcNAc(b1-4)]Man(a1-3)[GlcNAc(b1-2)Man(a1-6)]Man(b1-4)GlcNAc(b1-4)GlcNAc
# Procedure, shortened: as §1
# [7] = target: GlcNAc(b1-2)[GlcNAc(b1-4)]Man(a1-3)[GlcNAc(b1-4)][GlcNAc(b1-2)Man(a1-6)]Man(b1-4)GlcNAc(b1-4)GlcNAc
# Procedure, shortened: as §1
# [8] = target: GlcNAc(b1-2)[GlcNAc(b1-4)]Man(a1-3)[GlcNAc(b1-4)][GlcNAc(b1-2)[GlcNAc(b1-6)]Man(a1-6)]Man(b1-4)GlcNAc(b1-4)GlcNAc
# Procedure, shortened: as §1
# [9] = target: GlcNAc(b1-2)[GlcNAc(b1-4)]Man(a1-3)[GlcNAc(b1-4)][GlcNAc(b1-2)[GlcNAc(b1-6)]Man(a1-6)]Man(b1-4)GlcNAc(b1-4)[Fuc(a1-6)]GlcNAc
# Procedure, shortened: as §1
# [10] = target: GlcNAc(b1-2)[GlcNAc(b1-6)]Man(a1-6)[GlcNAc(b1-2)Man(a1-3)]Man(b1-4)GlcNAc(b1-4)GlcNAc
# Procedure, shortened: as §1
# [11] = target: GlcNAc(b1-2)[GlcNAc(b1-6)]Man(a1-6)[GlcNAc(b1-2)Man(a1-3)]Man(b1-4)GlcNAc(b1-4)[Fuc(a1-6)]GlcNAc
# Procedure, shortened: as §1
# [12] = target: GlcNAc(b1-2)[GlcNAc(b1-6)]Man(a1-6)[GlcNAc(b1-4)][GlcNAc(b1-2)Man(a1-3)]Man(b1-4)GlcNAc(b1-4)GlcNAc
# Procedure, shortened: as §1
# GlcNAc(b1-3)Fuc = target: GlcNAc(b1-3)Fuc
# Procedure, shortened: as §1
# GlcNAc(b1-3)Gal = target: GlcNAc(b1-3)Gal
# Procedure, shortened: as §1
# [13] = target: GlcNAc(b1-3)Gal(b1-3)GalNAc
# Procedure, shortened: as §1
# GlcNAc(b1-3)Gal(b1-4)Glc = target: GlcNAc(b1-3)Gal(b1-4)Glc
# Procedure, shortened: as §1
# [14] = target: GlcNAc(b1-3)Gal(b1-4)GlcNAc
# Procedure, shortened: as §1
# [15] = target: GlcNAc(b1-3)Gal(b1-4)GlcNAc(b1-2)Man(a1-3)[GlcNAc(b1-3)Gal(b1-4)GlcNAc(b1-2)Man(a1-6)]Man(b1-4)GlcNAc(b1-4)GlcNAc
# Procedure, shortened: as §1
# [16] = target: GlcNAc(b1-3)Gal(b1-4)GlcNAc(b1-2)Man(a1-3)[GlcNAc(b1-3)Gal(b1-4)GlcNAc(b1-2)Man(a1-6)]Man(b1-4)GlcNAc(b1-4)[Fuc(a1-6)]GlcNAc
# Procedure, shortened: as §1
# [17] = target: GlcNAc(b1-3)Gal(b1-4)GlcNAc(b1-2)[GlcNAc(b1-3)Gal(b1-4)GlcNAc(b1-6)]Man(a1-6)[GlcNAc(b1-3)Gal(b1-4)GlcNAc(b1-2)Man(a1-3)]Man(b1-4)GlcNAc(b1-4)GlcNAc
# Procedure, shortened: as §1
# [18] = target: GlcNAc(b1-3)Gal(b1-4)GlcNAc(b1-3)Gal(b1-4)GlcNAc
# Procedure, shortened: as §1
# [19] = target: GlcNAc(b1-3)Gal(b1-4)GlcNAc(b1-3)Gal(b1-4)GlcNAc(b1-2)Man(a1-3)[GlcNAc(b1-3)Gal(b1-4)GlcNAc(b1-3)Gal(b1-4)GlcNAc(b1-2)Man(a1-6)]Man(b1-4)GlcNAc(b1-4)GlcNAc
# Procedure, shortened: as §1
# [20] = target: GlcNAc(b1-3)Gal(b1-4)GlcNAc(b1-3)Gal(b1-4)GlcNAc(b1-2)Man(a1-3)[GlcNAc(b1-3)Gal(b1-4)GlcNAc(b1-3)Gal(b1-4)GlcNAc(b1-2)Man(a1-6)]Man(b1-4)GlcNAc(b1-4)[Fuc(a1-6)]GlcNAc
# Procedure, shortened: as §1
# [21] = target: GlcNAc(b1-3)Gal(b1-4)GlcNAc(b1-3)Gal(b1-4)GlcNAc(b1-2)[GlcNAc(b1-3)Gal(b1-4)GlcNAc(b1-3)Gal(b1-4)GlcNAc(b1-6)]Man(a1-6)[GlcNAc(b1-3)Gal(b1-4)GlcNAc(b1-3)Gal(b1-4)GlcNAc(b1-2)Man(a1-3)]Man(b1-4)GlcNAc(b1-4)[Fuc(a1-6)]GlcNAc
# Procedure, shortened: as §1
# [22] = target: GlcNAc(b1-3)Gal(b1-4)GlcNAc(b1-3)Gal(b1-4)GlcNAc(b1-3)Gal(b1-4)GlcNAc(b1-2)Man(a1-3)[GlcNAc(b1-3)Gal(b1-4)GlcNAc(b1-3)Gal(b1-4)GlcNAc(b1-3)Gal(b1-4)GlcNAc(b1-2)Man(a1-6)]Man(b1-4)GlcNAc(b1-4)GlcNAc
# Procedure, shortened: as §1
# [23] = target: GlcNAc(b1-3)Gal(b1-4)GlcNAc(b1-3)Gal(b1-4)GlcNAc(b1-3)Gal(b1-4)GlcNAc(b1-2)Man(a1-3)[GlcNAc(b1-3)Gal(b1-4)GlcNAc(b1-3)Gal(b1-4)GlcNAc(b1-3)Gal(b1-4)GlcNAc(b1-2)Man(a1-6)]Man(b1-4)GlcNAc(b1-4)[Fuc(a1-6)]GlcNAc
# Procedure, shortened: as §1
# [24] = target: GlcNAc(b1-3)Gal(b1-4)GlcNAc(b1-3)Gal(b1-4)GlcNAc(b1-3)Gal(b1-4)GlcNAc(b1-2)[GlcNAc(b1-3)Gal(b1-4)GlcNAc(b1-3)Gal(b1-4)GlcNAc(b1-3)Gal(b1-4)GlcNAc(b1-6)]Man(a1-6)[GlcNAc(b1-3)Gal(b1-4)GlcNAc(b1-3)Gal(b1-4)GlcNAc(b1-3)Gal(b1-4)GlcNAc(b1-2)Man(a1-3)]Man(b1-4)GlcNAc(b1-4)[Fuc(a1-6)]GlcNAc
# Procedure, shortened: as §1
# [25] = target: GlcNAc(b1-3)Gal(b1-4)GlcNAc(b1-3)Gal(b1-4)GlcNAc(b1-3)Gal(b1-4)GlcNAc(b1-3)Gal(b1-4)GlcNAc(b1-2)Man(a1-3)[GlcNAc(b1-3)Gal(b1-4)GlcNAc(b1-3)Gal(b1-4)GlcNAc(b1-3)Gal(b1-4)GlcNAc(b1-3)Gal(b1-4)GlcNAc(b1-2)Man(a1-6)]Man(b1-4)GlcNAc(b1-4)GlcNAc
# Procedure, shortened: as §1
# [26] = target: GlcNAc(b1-3)Gal(b1-4)GlcNAc(b1-3)Gal(b1-4)GlcNAc(b1-3)Gal(b1-4)GlcNAc(b1-3)Gal(b1-4)GlcNAc(b1-2)Man(a1-3)[GlcNAc(b1-3)Gal(b1-4)GlcNAc(b1-3)Gal(b1-4)GlcNAc(b1-3)Gal(b1-4)GlcNAc(b1-3)Gal(b1-4)GlcNAc(b1-2)Man(a1-6)]Man(b1-4)GlcNAc(b1-4)[Fuc(a1-6)]GlcNAc
# Procedure, shortened: as §1
# [27] = target: GlcNAc(b1-3)Gal(b1-4)GlcNAc(b1-3)Gal(b1-4)GlcNAc(b1-3)Gal(b1-4)GlcNAc(b1-3)Gal(b1-4)GlcNAc(b1-2)[GlcNAc(b1-3)Gal(b1-4)GlcNAc(b1-3)Gal(b1-4)GlcNAc(b1-3)Gal(b1-4)GlcNAc(b1-3)Gal(b1-4)GlcNAc(b1-6)]Man(a1-6)[GlcNAc(b1-3)Gal(b1-4)GlcNAc(b1-3)Gal(b1-4)GlcNAc(b1-3)Gal(b1-4)GlcNAc(b1-3)Gal(b1-4)GlcNAc(b1-2)Man(a1-3)]Man(b1-4)GlcNAc(b1-4)[Fuc(a1-6)]GlcNAc
# Procedure, shortened: as §1
binder,measurement,setting,value
B1,glycan array binding signal (z-score),[1],0.16
same,glycan array binding signal (z-score),[2],-0.563
same,glycan array binding signal (z-score),[3],0.84
same,glycan array binding signal (z-score),[4],-0.644
same,glycan array binding signal (z-score),[5],0.138
same,glycan array binding signal (z-score),[6],0.234
same,glycan array binding signal (z-score),[7],-0.753
same,glycan array binding signal (z-score),[8],-0.791
same,glycan array binding signal (z-score),[9],-0.141
same,glycan array binding signal (z-score),[10],0.211
same,glycan array binding signal (z-score),[11],-0.582
same,glycan array binding signal (z-score),[12],0.138
same,glycan array binding signal (z-score),GlcNAc(b1-3)Fuc,0.149
same,glycan array binding signal (z-score),GlcNAc(b1-3)Gal,0.42
same,glycan array binding signal (z-score),[13],-0.077
same,glycan array binding signal (z-score),GlcNAc(b1-3)Gal(b1-4)Glc,0.621
same,glycan array binding signal (z-score),[14],0.141
same,glycan array binding signal (z-score),[15],0.09
same,glycan array binding signal (z-score),[16],1.57
same,glycan array binding signal (z-score),[17],0.497
same,glycan array binding signal (z-score),[18],-0.759
same,glycan array binding signal (z-score),[19],0.753
same,glycan array binding signal (z-score),[20],0.309
same,glycan array binding signal (z-score),[21],0.724
same,glycan array binding signal (z-score),[22],0.176
same,glycan array binding signal (z-score),[23],1.82
same,glycan array binding signal (z-score),[24],0.579
same,glycan array binding signal (z-score),[25],0.69
same,glycan array binding signal (z-score),[26],0.252
same,glycan array binding signal (z-score),[27],0.825
